The results in this text go back to the supplement of paper PMC12423691.

This is one part of the list. Binding of human transcription factors and regulators to the viral nucleoprotein by AlphaScreen, crude cell-free proteins, amounts not normalised, one pass. Fold of the Venus control; higher = more signal. No active / inactive call. Single-pass screen; sequences are the whole Swiss-Prot entries looked up by name.

B1: CTH, P32929 (protein)
chain: MQEKDASSQGFLPHFQHFATQAIHVGQDPEQWTSRAVVPPISLSTTFKQGAPGQHSGFEYSRSGNPTRNCLEKAVAALDGAKYCLAFASGLAATVTITHLLKAGDQIICMDDVYGGTNRYFRQVASEFGLKISFVDCSKIKLLEAAITPETKLVWIETPTNPTQKVIDIEGCAHIVHKHGDIILVVDNTFMSPYFQRPLALGADISMYSATKYMNGHSDVVMGLVSVNCESLHNRLRFLQNSLGAVPSPIDCYLCNRGLKTLHVRMEKHFKNGMAVAQFLESNPWVEKVIYPGLPSHPQHELVKRQCTGCTGMVTFYIKGTLQHAEIFLKNLKLFTLAESLGGFESLAELPAIMTHASVLKNDRDVLGISDTLIRLSVGLEDEEDLLEDLDQALKAAHPPSGSHS
B2: PLAGL1, Q9UM63 (protein)
chain: MATFPCQLCGKTFLTLEKFTIHNYSHSRERPYKCVQPDCGKAFVSRYKLMRHMATHSPQKSHQCAHCEKTFNRKDHLKNHLQTHDPNKMAFGCEECGKKYNTMLGYKRHLALHAASSGDLTCGVCALELGSTEVLLDHLKAHAEEKPPSGTKEKKHQCDHCERCFYTRKDVRRHLVVHTGCKDFLCQFCAQRFGRKDHLTRHTKKTHSQELMKESLQTGDLLSTFHTISPSFQLKAAALPPFPLGASAQNGLASSLPAEVHSLTLSPPEQAAQPMQPLPESLASLHPSVSPGSPPPPLPNHKYNTTSTSYSPLASLPLKADTKGFCNISLFEDLPLQEPQSPQKLNPGFDLAKGNAGKVNLPKELPADAVNLTIPASLDLSPLLGFWQLPPPATQNTFGNSTLALGPGESLPHRLSCLGQQQQEPPLAMGTVSLGQLPLPPIPHVFSAGTGSAILPHFHHAFR
B3: PAXBP1, Q9Y5B6 (protein)
chain: MFRKARRVNVRKRNDSEEEERERDEEQEPPPLLPPPGTGEEAGPGGGDRAPGGESLLGPGPSPPSALTPGLGAEAGGGFPGGAEPGNGLKPRKRPRENKEVPRASLLSFQDEEEENEEVFKVKKSSYSKKIVKLLKKEYKEDLEKSKIKTELNSSAESEQPLDKTGHVKDTNQEDGVIISEHGEDEMDMESEKEEEKPKTGGAFSNALSSLNVLRPGEIPDAAFIHAARKKRQMARELGDFTPHDNEPGKGRLVREDENDASDDEDDDEKRRIVFSVKEKSQRQKIAEEIGIEGSDDDALVTGEQDEELSRWEQEQIRKGINIPQVQASQPAEVNMYYQNTYQTMPYGSSYGIPYSYTAYGSSDAKSQKTDNTVPFKTPSNEMTPVTIDLVKKQLKDRLDSMKELHKTNRQQHEKHLQSRVDSTRAIERLEGSSGGIGERYKFLQEMRGYVQDLLECFSEKVPLINELESAIHQLYKQRASRLVQRRQDDIKDESSEFSSHSNKALMAPNLDSFGRDRALYQEHAKRRIAEREARRTRRRQAREQTGKMADHLEGLSSDDEETSTDITNFNLEKDRISKESGKVFEDVLESFYSIDCIKSQFEAWRSKYYTSYKDAYIGLCLPKLFNPLIRLQLLTWTPLEAKCRDFENMLWFESLLFYGCEEREQEKDDVDVALLPTIVEKVILPKLTVIAENMWDPFSTTQTSRMVGITLKLINGYPSVVNAENKNTQVYLKALLLRMRRTLDDDVFMPLYPKNVLENKNSGPYLFFQRQFWSSVKLLGNFLQWYGIFSNKTLQELSIDGLLNRYILMAFQNSEYGDDSIKKAQNVINCFPKQWFMNLKGERTISQLENFCRYLVHLADTIYRNSIGCSDVEKRNARENIKQIVKLLASVRALDHAMSVASDHNVKEFKSLIEGK

In this test the target is nucleoprotein N of Crimean-Congo hemorrhagic fever virus. The test is described as follows: AlphaScreen luminescence signal relative to Venus negative control (fold); higher = stronger binding to CCHFV N. The method, then: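 AlphaScreen binding of cell-free made, FLAG-GST-tagged human transcription factors and regulators (crude translation products) to biotinylated N protein; signal as fold of the FLAG-GST-Venus control. One pass.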
A general note: Bead proximity is the source of the signal in Alpha formats.
With B1, the AlphaScreen luminescence signal is 1.16.
B2: the AlphaScreen luminescence signal was determined as 2.74.
With B3 the figure was 1.02.
